Measured values published in PubChem BioAssay AID463173 (ICCB-Longwood Screening Facility, Harvard Medical School, 2010).
The whole screen tested about 52,000 compounds, of which about 4,300 (8.3%) were called active. Rule as the data show it: active = survival mostly below about 52% (no sharp cut-off); inactive = mostly above about 56%. This is one part of the list.

test system: DeltatarO mutant; experiment: S. aureus survival, RN4220 and DeltatarO strains – OD600, teichoic acid synthesis inhibitors, primary screen (AID 463173); settings: S. aureus RN4220 wild type/DeltatarO growth, OD600, 18 h, hits give low values, screened at 18.75 µg/mL (by protocol)

SMILES | survival
COc1ccccc1CNC(=O)c1oc2ccc(S(=O)(=O)N3CCCCC3)cc2c1C | inactive: 91%
COc1ccc(NC(=O)c2cc3nc(-c4ccc(C)c(C)c4)cc(C(F)(F)F)n3n2)cc1 | inactive: 60%
CCOc1ccc(NC(=O)CSc2nccn2Cc2ccco2)cc1 | inactive: 91%
CCC(=O)Nc1ccc2c(c1)C(=O)OC2 | inactive: 77%
COc1ccc(-c2nc3ccccc3s2)cc1NC(=O)COc1ccc(C)cc1 | inactive: 129%
COc1ccc(-c2cc(OC(=O)c3ccc(Cl)cc3)c3c(C)oc(C)c3c(=O)c2)cc1 | inactive: 80%
Cc1ccc(N(Cc2ccc(C(=O)NCc3ccco3)cc2)S(C)(=O)=O)cc1C | inactive: 93%
Cc1ccc(C(=O)Nc2cccc(-c3nc4cccnc4s3)c2C)cc1 | inactive: 111%
Cc1cccc(CN2C(=O)c3ccccc3S(=O)(=O)c3ccc(C(=O)NCCC4=CCCCC4)cc32)c1 | inactive: 77%
COC(=O)c1ccc(Nc2nnc(-c3ccc(C)c(S(=O)(=O)N4CCN(C)CC4)c3)c3ccccc23)cc1 | inactive: 89%
CCCC(C)NS(=O)(=O)Cc1ccccc1 (stereo not drawn) | inactive: 83%
Cc1ccc(CSc2ncc(Cl)c(C(=O)NCCc3ccc(S(N)(=O)=O)cc3)n2)cc1 | inactive: 44%
CCOC(=O)C1CCN(C(=O)CCS(=O)(=O)c2cc3c(cc2Cl)NC(=O)CO3)CC1 | inactive: 92%
Cc1ccc(N(CC(=O)NCc2ccc(Cl)cc2)S(=O)(=O)N(C)C)cc1 | inactive: 83%
COc1ccc(NC(=O)CSc2nc(-c3ccc(OC)cc3)[nH]c2-c2ccc(OC)cc2)cc1 | inactive: 71%
Cc1ccccc1NC(=O)CSc1nc(-c2ccccc2C)nc2cc(=O)[nH]n12 | inactive: 107%
CCOc1ccc(NC(=O)N2CCN(S(=O)(=O)c3ccc4c(ccn4C)c3)CC2)cc1 | inactive: 78%
COc1ccccc1N(CC(=O)NCCSCc1ccccc1)S(=O)(=O)c1ccc(C)cc1 | active: 41%
CC(=O)N1CCN(c2csc3ccc(F)cc3c2=O)CC1 | inactive: 90%
CCc1ccc(C(=O)c2cn(CC(=O)Nc3ccc(F)cc3)c3ccc(OC)cc3c2=O)cc1 | inactive: 74%
COc1ccc(NC(=O)Cn2c(=O)n(C(C)C)c(=O)c3oc4ccccc4c32)cc1Cl | active: 42%
O=C1CN(C(=O)Cc2ccc(F)cc2)C(c2ccccc2)c2cc(Cl)ccc2N1 (stereo not drawn) | inactive: 127%

SMILES | survival
CCCN1CCN(CCNC(=O)Nc2ccc(OC)cc2OC)CC1 | inactive: 88%
O=C(CC1C(=O)N(c2ccccc2)C(=O)N1CCC1=CCCCC1)Nc1ccc(F)cc1 (stereo not drawn) | inactive: 48%
COc1ccc(C2C(C#N)=C(N)OC3=C2C(=O)CCC3)cc1 (stereo not drawn) | inactive: 97%
O=C(NC1CCCCC1)C1CC(c2ccccc2O)=NO1 (stereo not drawn) | inactive: 91%
Cc1ccc(Cl)cc1NC(=O)C(C)n1nnc2sc(-c3ccccc3)cc2c1=O (stereo not drawn) | inactive: 59%
COC(=O)c1cccc(-n2c(CCC(=O)O)ccc2-c2ccc(OC)cc2)c1 | inactive: 65%
COc1cc(/C=C/C(=O)O)cc(S(=O)(=O)N2CCc3ccccc32)c1OC | inactive: 95%
CCCCOc1ccc(S(=O)(=O)Nc2ccc(-c3ccc(N4CCCCCC4)nn3)cc2)cc1 | inactive: 72%
COc1cccc(CNC(=O)CCc2cn(Cc3ccccc3Cl)c3ccccc23)c1 | inactive: 104%
CCOC(=O)c1c(C)oc2ncnc(N3CCN(c4ccccc4OC)CC3)c12 | inactive: 67%
COc1ccc(Cn2c(SCc3ccc(C(=O)NC4CCCC4)cc3)nc3ccncc32)cc1 | inactive: 60%
O=C(COc1ccc2oc3c(c2c1)CCCC3)Nc1ccc(Br)cc1 | inactive: 89%
Cc1nn(-c2ccccc2)c(OC(=O)C(C)C)c1Sc1ccccc1 | inactive: 48%
Brc1cccc(CNCCSc2nnnn2-c2ccccc2)c1 | inactive: 71%
CCc1ccccc1N(C)C(=O)Cc1c(C(=O)O)c(C)cn1C | inactive: 94%
Cc1cc(C)c(NC(=O)C(C)n2nc(-c3ccc(C)c(C)c3)ccc2=O)c(C)c1 (stereo not drawn) | inactive: 63%
Cc1ccc(NC(=O)Cc2ccc(-n3c(C)nc4cccnc43)cc2)cc1C | inactive: 98%
O=C(O)CC1=C(c2cccs2)CCC1=O | inactive: 102%
COc1ccc(C(F)(F)F)cc1NC(=O)c1sc2nc(-c3cccs3)ccc2c1N | inactive: 69%
CC(=O)c1ccc(N2CCN(c3ncnc4c3c(-c3ccccc3)cn4-c3cccc(C)c3)CC2)cc1 | inactive: 113%
Cc1cccc(N2CCN(c3ncnc4c3nc3n4CCCCC3)CC2)c1C | inactive: 95%
CCOC(=O)c1ccc(NC(=O)c2c(-c3c(F)cccc3Cl)noc2C)cc1 | inactive: 59%

SMILES | survival
CCC(=O)N1CCc2cc(Br)cc(S(=O)(=O)N3CCC(C(=O)NCCCOC(C)C)CC3)c21 | inactive: 133%
COC(=O)c1ccccc1NC(=O)c1ccc(COc2ccccc2Cl)o1 | inactive: 63%
COc1ccc(C2CC(=O)c3cc(-c4nc(-c5cccc(Cl)c5)cs4)c(=O)[nH]c3C2)cc1OC (stereo not drawn) | inactive: 142%
COc1ccccc1CNC(=O)C1CCCN(c2nc3ccccc3n3cccc23)C1 (stereo not drawn) | inactive: 53%
COc1ccc(Cl)cc1C(=O)Nc1sc2c(c1C(=O)OC(C)C)CCCC2 | inactive: 61%
O=C(C1CC1)N1CCc2cc(Br)cc(S(=O)(=O)N3CCN(c4cccc(C(F)(F)F)c4)CC3)c21 | inactive: 64%
O=C(Nc1ccccc1)NC1(C(=O)Nc2ccc(-n3cnnn3)cc2)CCCCC1 | inactive: 98%
CC(=O)N1CCc2cc(Br)cc(S(=O)(=O)N3CCN(c4cccc(C(F)(F)F)c4)CC3)c21 | inactive: 150%
COc1ccccc1NC(=O)C1=C(C)Nc2c(C(=O)Nc3ccc(F)cc3)cnn2C1c1cccc([N+](=O)[O-])c1 (stereo not drawn) | inactive: 100%
CCCCN(C)c1nc2c(S(=O)(=O)c3ccc(CC)cc3)nnn2c2ccc(Cl)cc12 | inactive: 76%
COc1ccc(NC(=O)Cn2c(=O)n(-c3ccc(OC)c(OC)c3)c(=O)c3ccccc32)cc1 | inactive: 93%
COc1cc(C(CC(=O)NCc2ccc(F)cc2)N2Cc3ccccc3C2=O)cc(OC)c1OC (stereo not drawn) | inactive: 73%
CCC1CCCCN1C(=O)Cn1c(=O)n(CCCCCC(=O)NCc2ccccc2)c(=O)c2sccc21 (stereo not drawn) | inactive: 69%
CSc1ncc(Cl)c(C(=O)Nc2ccc(NC(C)=O)cc2)n1 | inactive: 82%
COc1ccc(Cl)cc1NC(=O)c1c(NCc2ccc(C)o2)sc2c1CCCCC2 | inactive: 85%
COc1cccc(NC(=O)c2ccc3nc(CCc4ccccc4)oc3c2)c1 | inactive: 107%
CCCn1c2ccccc2c2cnn(CC(=O)N(C)c3ccc(F)cc3)c(=O)c21 | inactive: 134%
COc1cccc(CSc2nc3ccccc3c3nc(CCn4c(C)nc5ccccc54)nn23)c1 | inactive: 79%
CCOC(=O)c1cnn(-c2ccc(C(=O)Nc3cc(OC)c(OC)c(OC)c3)cc2)c1N | inactive: 75%
CC1CCN(S(=O)(=O)c2cn(CC(=O)Nc3cccc(C(F)(F)F)c3)c(=O)c3ccccc23)CC1 | inactive: 65%
O=C(CSc1ccccc1)N1CCc2c([nH]c3ccccc23)C1c1ccc(F)cc1 (stereo not drawn) | inactive: 76%
Nc1c(-c2nc(-c3cccs3)no2)nnn1-c1ccc(Cl)cc1 | inactive: 66%

SMILES | survival
COc1cccc(C(=O)Nc2cccc(C(=O)OCc3cc(=O)n4nc(C5CC5)sc4n3)c2)c1 | inactive: 89%
CCn1c(C(=O)NCCc2ccc(OC)c(OC)c2)cc2sc(Cl)cc21 | active: 32%
COC(=O)c1cc2oc3ccccc3c2n1Cc1nc(-c2ccc(OC)cc2)oc1C | inactive: 77%
CCCCn1c(SCC(=O)N2CCCCC2)nc2ccccc2c1=O | inactive: 90%
COc1ccc(SCc2cc(=O)c3cc(Cl)ccc3[nH]2)cc1 | inactive: 70%
c1ccc(CNc2nc3c(-c4ccccc4)nnn3c3ccccc23)cc1 | inactive: 75%
O=C(Cc1ccc(Cl)cc1)Nc1ccc2nn(-c3ccc(Cl)cc3)nc2c1 | inactive: 83%
O=C(NCc1ccc2c(c1)CCN2C(=O)c1ccc(F)cc1)c1cc2ccccc2[nH]1 | inactive: 97%
CCn1c(COc2cccc(C)c2)nnc1SCC(=O)NC(C)(C)C | inactive: 102%
COc1ccccc1CNC(=O)CCC(=O)N1CC2CCCN2c2ccccc21 (stereo not drawn) | inactive: 99%
CCOc1ccccc1NC(=O)C(=O)NCCc1sc(-c2cccc(F)c2)nc1C | inactive: 90%
CCc1ccc(NCc2cc3cc4c(cc3n(CC(=O)Nc3ccc(C)cc3)c2=O)OCO4)cc1 | inactive: 89%
COc1ccc(-c2cc(C(F)(F)F)nc(S(=O)(=O)CCCC(=O)Nc3cccc(O)c3)n2)cc1OC | inactive: 76%
CCC(=O)Oc1ccc(/C=C(\C#N)c2nc3ccccc3[nH]2)cc1OC | inactive: 47%
CCOc1ccc(NC(=O)NCc2c(-n3cccc3)sc3c2CCCC3)cc1 | inactive: 87%
CSc1nc(-c2ccccc2F)c(C#N)c(=O)n1C | inactive: 100%
CCOc1ccc(NC(=O)C2CCCN(S(=O)(=O)c3cccc4nonc34)C2)cc1 (stereo not drawn) | inactive: 86%
Cc1ccc(Nc2c(-c3cccs3)nc3nc(C)cc(C)n23)cc1 | active: 15%
CC(=O)c1ccc(NC(=O)CSc2nnc3ccc(-c4ccc(Cl)cc4)nn23)cc1 | inactive: 83%
CCc1ccccc1N1C(=O)N(Cc2ccc(C#N)cc2)c2ccccc2S1(=O)=O | inactive: 120%
CC(C)Sc1oc(-c2cccs2)nc1S(=O)(=O)c1ccc(Cl)cc1 | inactive: 66%
CCOc1ccc(OCC)c(NS(=O)(=O)c2cc(-c3cc(C)no3)ccc2C)c1 | inactive: 91%
